# Source: the supplement of paper PMC8728848
# The list shows a part of the results.
# B1: LFA (Limax flavus) (protein)
# chain: MSVLFLAASFLLLASFELVAAQGCPRQDPGDWIVIQRRLNADVNFYRGWADYKHGFGDLRCNFWLGNEKIHQLTSHGRYKLRVEFTFNNKSYFAEYSTFKILGEADKYKLQVGGYSGNAGDALTFHNGMAFSTNDRDNDADSIDCAKVYHGAWWYKTCHESNLNGKWGSKKYGEGLNWKAKTTFTATATSSLLKIKALK
# Tests used:
# Test in all cases: glycan array binding signal (z-score within array); higher = stronger binding
# Details in all cases: glycan notation: IUPAC condensed, linker removed
# [1] = target: Gal(b1-4)GlcNAc(b1-3)Gal(b1-4)GlcNAc(b1-2)Man(a1-3)[Gal(b1-4)GlcNAc(b1-3)Gal(b1-4)GlcNAc(b1-2)Man(a1-6)]Man(b1-4)GlcNAc(b1-4)[Fuc(a1-6)]GlcNAc
# Procedure, shortened: (§1)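 Glycan array binding is given as a within-array Z-score, which can be read as non-binding when negative. The arrays, 3228 of them, came from the Consortium for Functional Glycomics database and were retained only where the protein sequence was available. Z-scores were averaged across arrays of the same protein sequence at different concentrations or buffers and across linkers.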
# [2] = target: Gal(b1-4)GlcNAc(b1-3)Gal(b1-4)GlcNAc(b1-2)[Gal(b1-4)GlcNAc(b1-3)Gal(b1-4)GlcNAc(b1-6)]Man(a1-6)[Gal(b1-4)GlcNAc(b1-3)Gal(b1-4)GlcNAc(b1-2)Man(a1-3)]Man(b1-4)GlcNAc(b1-4)GlcNAc
# Procedure, shortened: as §1
# [3] = target: Gal(b1-4)GlcNAc(b1-3)Gal(b1-4)GlcNAc(b1-2)[Gal(b1-4)GlcNAc(b1-3)Gal(b1-4)GlcNAc(b1-6)]Man(a1-6)[Gal(b1-4)GlcNAc(b1-3)Gal(b1-4)GlcNAc(b1-2)Man(a1-3)]Man(b1-4)GlcNAc(b1-4)[Fuc(a1-6)]GlcNAc
# Procedure, shortened: as §1
# [4] = target: Gal(b1-4)GlcNAc(b1-3)Gal(b1-4)GlcNAc(b1-3)Gal(b1-4)GlcNAc
# Procedure, shortened: as §1
# [5] = target: Gal(b1-4)GlcNAc(b1-3)Gal(b1-4)GlcNAc(b1-3)Gal(b1-4)GlcNAc(b1-2)Man(a1-3)[Gal(b1-4)GlcNAc(b1-3)Gal(b1-4)GlcNAc(b1-3)Gal(b1-4)GlcNAc(b1-2)Man(a1-6)]Man(b1-4)GlcNAc(b1-4)GlcNAc
# Procedure, shortened: as §1
# [6] = target: Gal(b1-4)GlcNAc(b1-3)Gal(b1-4)GlcNAc(b1-3)Gal(b1-4)GlcNAc(b1-2)Man(a1-3)[Gal(b1-4)GlcNAc(b1-3)Gal(b1-4)GlcNAc(b1-3)Gal(b1-4)GlcNAc(b1-2)Man(a1-6)]Man(b1-4)GlcNAc(b1-4)[Fuc(a1-6)]GlcNAc
# Procedure, shortened: as §1
# [7] = target: Gal(b1-4)GlcNAc(b1-3)Gal(b1-4)GlcNAc(b1-3)Gal(b1-4)GlcNAc(b1-2)[Gal(b1-4)GlcNAc(b1-3)Gal(b1-4)GlcNAc(b1-3)Gal(b1-4)GlcNAc(b1-6)]Man(a1-6)[Gal(b1-4)GlcNAc(b1-3)Gal(b1-4)GlcNAc(b1-3)Gal(b1-4)GlcNAc(b1-2)Man(a1-3)]Man(b1-4)GlcNAc(b1-4)[Fuc(a1-6)]GlcNAc
# Procedure, shortened: as §1
# [8] = target: Gal(b1-4)GlcNAc(b1-3)Gal(b1-4)GlcNAc(b1-3)Gal(b1-4)GlcNAc(b1-3)Gal(b1-4)GlcNAc(b1-2)Man(a1-3)[Gal(b1-4)GlcNAc(b1-3)Gal(b1-4)GlcNAc(b1-3)Gal(b1-4)GlcNAc(b1-3)Gal(b1-4)GlcNAc(b1-2)Man(a1-6)]Man(b1-4)GlcNAc(b1-4)GlcNAc
# Procedure, shortened: as §1
# [9] = target: Gal(b1-4)GlcNAc(b1-3)Gal(b1-4)GlcNAc(b1-3)Gal(b1-4)GlcNAc(b1-3)Gal(b1-4)GlcNAc(b1-2)Man(a1-3)[Gal(b1-4)GlcNAc(b1-3)Gal(b1-4)GlcNAc(b1-3)Gal(b1-4)GlcNAc(b1-3)Gal(b1-4)GlcNAc(b1-2)Man(a1-6)]Man(b1-4)GlcNAc(b1-4)[Fuc(a1-6)]GlcNAc
# Procedure, shortened: as §1
# [10] = target: Gal(b1-4)GlcNAc(b1-3)Gal(b1-4)GlcNAc(b1-3)Gal(b1-4)GlcNAc(b1-3)Gal(b1-4)GlcNAc(b1-2)[Gal(b1-4)GlcNAc(b1-3)Gal(b1-4)GlcNAc(b1-3)Gal(b1-4)GlcNAc(b1-3)Gal(b1-4)GlcNAc(b1-6)]Man(a1-6)[Gal(b1-4)GlcNAc(b1-3)Gal(b1-4)GlcNAc(b1-3)Gal(b1-4)GlcNAc(b1-3)Gal(b1-4)GlcNAc(b1-2)Man(a1-3)]Man(b1-4)GlcNAc(b1-4)[Fuc(a1-6)]GlcNAc
# Procedure, shortened: as §1
# [11] = target: Gal(b1-4)GlcNAc(b1-3)Gal(b1-4)GlcNAc(b1-3)Gal(b1-4)GlcNAc(b1-3)Gal(b1-4)GlcNAc(b1-3)Gal(b1-4)GlcNAc(b1-2)Man(a1-3)[Gal(b1-4)GlcNAc(b1-3)Gal(b1-4)GlcNAc(b1-3)Gal(b1-4)GlcNAc(b1-3)Gal(b1-4)GlcNAc(b1-3)Gal(b1-4)GlcNAc(b1-2)Man(a1-6)]Man(b1-4)GlcNAc(b1-4)GlcNAc
# Procedure, shortened: as §1
# [12] = target: Gal(b1-4)GlcNAc(b1-3)Gal(b1-4)GlcNAc(b1-3)Gal(b1-4)GlcNAc(b1-3)Gal(b1-4)GlcNAc(b1-3)Gal(b1-4)GlcNAc(b1-2)Man(a1-3)[Gal(b1-4)GlcNAc(b1-3)Gal(b1-4)GlcNAc(b1-3)Gal(b1-4)GlcNAc(b1-3)Gal(b1-4)GlcNAc(b1-3)Gal(b1-4)GlcNAc(b1-2)Man(a1-6)]Man(b1-4)GlcNAc(b1-4)[Fuc(a1-6)]GlcNAc
# Procedure, shortened: as §1
# [13] = target: Gal(b1-4)GlcNAc(b1-3)Gal(b1-4)GlcNAc(b1-3)Gal(b1-4)GlcNAc(b1-3)Gal(b1-4)GlcNAc(b1-3)Gal(b1-4)GlcNAc(b1-2)[Gal(b1-4)GlcNAc(b1-3)Gal(b1-4)GlcNAc(b1-3)Gal(b1-4)GlcNAc(b1-3)Gal(b1-4)GlcNAc(b1-3)Gal(b1-4)GlcNAc(b1-6)]Man(a1-6)[Gal(b1-4)GlcNAc(b1-3)Gal(b1-4)GlcNAc(b1-3)Gal(b1-4)GlcNAc(b1-3)Gal(b1-4)GlcNAc(b1-3)Gal(b1-4)GlcNAc(b1-2)Man(a1-3)]Man(b1-4)GlcNAc(b1-4)[Fuc(a1-6)]GlcNAc
# Procedure, shortened: as §1
# [14] = target: Gal(b1-4)GlcNAc(b1-3)Gal(b1-4)GlcNAc(b1-3)Gal(b1-4)GlcNAc(b1-3)Gal(b1-4)GlcNAc(b1-3)Gal(b1-4)GlcNAc(b1-3)Gal(b1-4)GlcNAc(b1-2)Man(a1-3)[Gal(b1-4)GlcNAc(b1-3)Gal(b1-4)GlcNAc(b1-3)Gal(b1-4)GlcNAc(b1-3)Gal(b1-4)GlcNAc(b1-3)Gal(b1-4)GlcNAc(b1-3)Gal(b1-4)GlcNAc(b1-2)Man(a1-6)]Man(b1-4)GlcNAc(b1-4)GlcNAc
# Procedure, shortened: as §1
# [15] = target: Gal(b1-4)GlcNAc(b1-3)Gal(b1-4)GlcNAc(b1-3)GalNAc
# Procedure, shortened: as §1
# [16] = target: Gal(b1-4)GlcNAc(b1-3)Gal(b1-4)GlcNAc(b1-3)[Gal(b1-4)GlcNAc(b1-3)Gal(b1-4)GlcNAc(b1-6)]GalNAc
# Procedure, shortened: as §1
# [17] = target: Gal(b1-4)GlcNAc(b1-3)Gal(b1-4)GlcNAc(b1-6)[Gal(b1-3)]GalNAc
# Procedure, shortened: as §1
# [18] = target: Gal(b1-4)GlcNAc(b1-3)Gal(b1-4)[Fuc(a1-3)]GlcNAc(b1-3)Gal(b1-4)[Fuc(a1-3)]GlcNAc
# Procedure, shortened: as §1
# [19] = target: Gal(b1-4)GlcNAc(b1-3)GalNAc
# Procedure, shortened: as §1
# [20] = target: Gal(b1-4)GlcNAc(b1-3)[Fuc(a1-3)GlcNAc(b1-6)]Gal(b1-4)Glc
# Procedure, shortened: as §1
# [21] = target: Gal(b1-4)GlcNAc(b1-3)[Gal(b1-4)GlcNAc(b1-6)]Gal(b1-4)GlcNAc
# Procedure, shortened: as §1
# [22] = target: Gal(b1-4)GlcNAc(b1-3)[GlcNAc(b1-6)]Gal(b1-4)GlcNAc
# Procedure, shortened: as §1
# [23] = target: Gal(b1-4)GlcNAc(b1-6)Gal(b1-4)GlcNAc
# Procedure, shortened: as §1
# [24] = target: Gal(b1-4)GlcNAc(b1-6)GalNAc
# Procedure, shortened: as §1
# [25] = target: Gal(b1-4)GlcNAc(b1-6)[Gal(b1-3)]GalNAc
# Procedure, shortened: as §1
# [26] = target: Gal(b1-4)GlcNAc(b1-6)[Gal(b1-4)GlcNAc(b1-3)]GalNAc
# Procedure, shortened: as §1
# Gal(b1-4)GlcNAc6P = target: Gal(b1-4)GlcNAc6P
# Procedure, shortened: as §1
# Gal(b1-6)Gal = target: Gal(b1-6)Gal
# Procedure, shortened: as §1
# Gal3S(b1-3)GalNAc = target: Gal3S(b1-3)GalNAc
# Procedure, shortened: as §1
# Gal3S(b1-3)GlcNAc = target: Gal3S(b1-3)GlcNAc
# Procedure, shortened: as §1
# [27] = target: Gal3S(b1-3)[Fuc(a1-4)]GlcNAc
# Procedure, shortened: as §1
# Gal3S(b1-4)Glc = target: Gal3S(b1-4)Glc
# Procedure, shortened: as §1
# Gal3S(b1-4)Glc6S = target: Gal3S(b1-4)Glc6S
# Procedure, shortened: as §1
# Gal3S(b1-4)GlcNAc = target: Gal3S(b1-4)GlcNAc
# Procedure, shortened: as §1
# [28] = target: Gal3S(b1-4)[Fuc(a1-3)]Glc6S
# Procedure, shortened: as §1
# [29] = target: Gal3S(b1-4)[Fuc(a1-3)]GlcNAc
# Procedure, shortened: as §1
# [30] = target: Gal3S(b1-4)[Fuc(a1-3)]GlcNAc6S
# Procedure, shortened: as §1
# Gal3S4S(b1-4)GlcNAc = target: Gal3S4S(b1-4)GlcNAc
# Procedure, shortened: as §1
# Gal3S6S(b1-4)GlcNAc = target: Gal3S6S(b1-4)GlcNAc
# Procedure, shortened: as §1
# Gal3S6S(b1-4)GlcNAc6S = target: Gal3S6S(b1-4)GlcNAc6S
# Procedure, shortened: as §1
# Gal4S(b1-4)GlcNAc = target: Gal4S(b1-4)GlcNAc
# Procedure, shortened: as §1
# Gal4S6S(b1-4)GlcNAc = target: Gal4S6S(b1-4)GlcNAc
# Procedure, shortened: as §1
# Gal6P(b1-4)GlcNAc = target: Gal6P(b1-4)GlcNAc
# Procedure, shortened: as §1
# Gal6S(b1-3)GlcNAc = target: Gal6S(b1-3)GlcNAc
# Procedure, shortened: as §1
# Gal6S(b1-3)GlcNAc6S = target: Gal6S(b1-3)GlcNAc6S
# Procedure, shortened: as §1
binder,measurement,setting,value
B1,glycan array binding signal (z-score),[1],0.674
same,glycan array binding signal (z-score),[2],0.372
same,glycan array binding signal (z-score),[3],-0.084
same,glycan array binding signal (z-score),[4],-0.05
same,glycan array binding signal (z-score),[5],2.45
same,glycan array binding signal (z-score),[6],0.063
same,glycan array binding signal (z-score),[7],0.448
same,glycan array binding signal (z-score),[8],0.243
same,glycan array binding signal (z-score),[9],0.267
same,glycan array binding signal (z-score),[10],0.856
same,glycan array binding signal (z-score),[11],-0.006
same,glycan array binding signal (z-score),[12],0.368
same,glycan array binding signal (z-score),[13],0.879
same,glycan array binding signal (z-score),[14],0.71
same,glycan array binding signal (z-score),[15],2.68
same,glycan array binding signal (z-score),[16],2.39
same,glycan array binding signal (z-score),[17],2.21
same,glycan array binding signal (z-score),[18],-0.223
same,glycan array binding signal (z-score),[19],1.17
same,glycan array binding signal (z-score),[20],0.216
same,glycan array binding signal (z-score),[21],-0.331
same,glycan array binding signal (z-score),[22],-0.373
same,glycan array binding signal (z-score),[23],-0.291
same,glycan array binding signal (z-score),[24],-0.258
same,glycan array binding signal (z-score),[25],-0.264
same,glycan array binding signal (z-score),[26],-0.145
same,glycan array binding signal (z-score),Gal(b1-4)GlcNAc6P,-0.307
same,glycan array binding signal (z-score),Gal(b1-6)Gal,-0.257
same,glycan array binding signal (z-score),Gal3S(b1-3)GalNAc,0.487
same,glycan array binding signal (z-score),Gal3S(b1-3)GlcNAc,-0.238
same,glycan array binding signal (z-score),[27],-0.306
same,glycan array binding signal (z-score),Gal3S(b1-4)Glc,-0.271
same,glycan array binding signal (z-score),Gal3S(b1-4)Glc6S,-0.193
same,glycan array binding signal (z-score),Gal3S(b1-4)GlcNAc,-0.26
same,glycan array binding signal (z-score),[28],0.119
same,glycan array binding signal (z-score),[29],-0.335
same,glycan array binding signal (z-score),[30],-0.21
same,glycan array binding signal (z-score),Gal3S4S(b1-4)GlcNAc,-0.218
same,glycan array binding signal (z-score),Gal3S6S(b1-4)GlcNAc,-0.305
same,glycan array binding signal (z-score),Gal3S6S(b1-4)GlcNAc6S,-0.074
same,glycan array binding signal (z-score),Gal4S(b1-4)GlcNAc,-0.194
same,glycan array binding signal (z-score),Gal4S6S(b1-4)GlcNAc,-0.282
same,glycan array binding signal (z-score),Gal6P(b1-4)GlcNAc,0.111
same,glycan array binding signal (z-score),Gal6S(b1-3)GlcNAc,-0.155
same,glycan array binding signal (z-score),Gal6S(b1-3)GlcNAc6S,-0.359
